Measurements as given in the supplement of paper PMC4967469.

Legend:
Assay in all cases: Viability of human cancer cell lines after 72 h of drug (GDSC screen)
[1] = compound: Oc1nc(-c2ccc(C(F)(F)F)cc2)nc2c1CSCC2 [XAV 939]; conditions: top dose 5 µM; top dose inferred
Experimental: (§1)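 Human cancer cell lines in 384-well plates, medium with 10% serum, drug for 72 h over a 256-fold dose range (nine 2-fold or five 4-fold steps up to the top dose). Adherent lines were fixed and stained with the nucleic acid dye Syto60, suspension lines read with resazurin; signal relative to control wells, capped at 0 and 100%. One two-parameter sigmoid per drug and line, fitted in a mixed model over all curves with the slope shared within a line.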

[2] = compound: Cc1ccc2nc(NCCN)c3ncc(C)n3c2c1 [BMS-345541]; conditions: top dose 16 µM
Experimental: as §1

[3] = compound: COc1cc(C(=O)NC2CCN(C)CC2)ccc1Nc1ncc2c(n1)N(C1CCCC1)C(C)CC(=O)N2C [NPK76-II-72-1]; conditions: top dose 10.24 µM; top dose inferred
Experimental: as §1

[4] = compound: COc1ccc(C(=O)CC2(O)C(=O)Nc3c(Cl)ccc(Cl)c32)cc1 [YK 4-279]; conditions: top dose 10 µM
Experimental: as §1

[5] = compound: C=C(c1ccc(C(=O)O)cc1)c1cc2c(cc1C)C(C)(C)CCC2(C)C [Bexarotene]; conditions: top dose 8 µM
Experimental: as §1

[6] = compound: O=C(O)c1ccc(-c2c[nH]c3ncc(-c4ccccc4)cc23)cc1C1CCCC1 [GSK-650394]; conditions: top dose 16 µM; top dose inferred
Experimental: as §1

[7] = compound: COc1cc([C@@H]2c3cc4c(cc3[C@@H](O[C@@H]3O[C@@H]5CO[C@@H](C)O[C@H]5[C@H](O)[C@H]3O)[C@H]3COC(=O)[C@H]23)OCO4)cc(OC)c1O [Etoposide]; conditions: top dose 16 µM
Experimental: as §1

[8] = compound: NC(=O)Nc1cc(-c2cccc(F)c2)sc1C(=O)N[C@H]1CCCNC1 [AZD7762]; conditions: top dose 2 µM
Experimental: as §1

Cell Line: RD (rhabdomyosarcoma, adherent)
- AUC [1]: 0.979
- IC50 [1]: > 5 µM
- AUC [2]: 0.893
- IC50 [2]: > 16 µM
- AUC [3]: 0.87
- IC50 [3]: > 10.2 µM
- AUC [4]: 0.685
- IC50 [4]: 2.18 µM
- AUC [5]: 0.955
- IC50 [5]: > 8 µM
- AUC [6]: 0.949
- IC50 [6]: > 16 µM
- AUC [7]: 0.661
- IC50 [7]: 2.93 µM

Cell Line: RERF-GC-1B (stomach, adherent)
- AUC [1]: 0.929
- IC50 [1]: > 5 µM
- AUC [2]: 0.881
- IC50 [2]: > 16 µM
- AUC [3]: 0.897
- IC50 [3]: > 10.2 µM
- AUC [4]: 0.842
- IC50 [4]: 8.28 µM
- AUC [5]: 0.956
- IC50 [5]: > 8 µM
- AUC [6]: 0.977
- IC50 [6]: > 16 µM
- AUC [7]: 0.85
- IC50 [7]: 14.4 µM

Cell Line: RT-112 (bladder, adherent)
- AUC [1]: 0.983
- IC50 [1]: > 5 µM
- AUC [2]: 0.873
- IC50 [2]: > 16 µM
- AUC [3]: 0.863
- IC50 [3]: 10 µM
- AUC [4]: 0.688
- IC50 [4]: 2.19 µM
- AUC [5]: 0.984
- IC50 [5]: > 8 µM
- AUC [6]: 0.485
- IC50 [6]: 0.907 µM
- AUC [7]: 0.397
- IC50 [7]: 0.51 µM

Cell Line: RXF393 (kidney, adherent)
- AUC [1]: 0.921
- IC50 [1]: > 5 µM
- AUC [2]: 0.895
- IC50 [2]: > 16 µM
- AUC [3]: 0.864
- IC50 [3]: > 10.2 µM
- AUC [4]: 0.75
- IC50 [4]: 4.42 µM
- AUC [8]: 0.552
- IC50 [8]: 0.183 µM
- AUC [6]: 0.941
- IC50 [6]: > 16 µM
- AUC [7]: 0.822
- IC50 [7]: 14.6 µM

Cell Line: SAS (head and neck, adherent)
- AUC [1]: 0.977
- IC50 [1]: > 5 µM
- AUC [2]: 0.887
- IC50 [2]: > 16 µM
- AUC [3]: 0.89
- IC50 [3]: > 10.2 µM
- AUC [4]: 0.744
- IC50 [4]: 3.44 µM
- AUC [5]: 0.967
- IC50 [5]: > 8 µM
- AUC [6]: 0.926
- IC50 [6]: > 16 µM
- AUC [7]: 0.559
- IC50 [7]: 1.48 µM

Cell Line: SCC-15 (head and neck, adherent)
- AUC [1]: 0.844
- IC50 [1]: > 5 µM
- AUC [2]: 0.887
- IC50 [2]: > 16 µM
- AUC [3]: 0.939
- IC50 [3]: > 10.2 µM
- AUC [4]: 0.758
- IC50 [4]: 4.62 µM
- AUC [5]: 0.966
- IC50 [5]: > 8 µM
- AUC [6]: 0.973
- IC50 [6]: > 16 µM
- AUC [7]: 0.768
- IC50 [7]: 8.09 µM

Cell Line: SK-CO-1 (large intestine, adherent)
- AUC [1]: 0.978
- IC50 [1]: > 5 µM
- AUC [2]: 0.981
- IC50 [2]: > 16 µM
- AUC [3]: 0.788
- IC50 [3]: 4.22 µM
- AUC [4]: 0.588
- IC50 [4]: 1.07 µM
- AUC [5]: 0.98
- IC50 [5]: > 8 µM
- AUC [6]: 0.947
- IC50 [6]: > 16 µM
- AUC [7]: 0.602
- IC50 [7]: 1.87 µM

Cell Line: SN12C (kidney, adherent)
- AUC [1]: 0.956
- IC50 [1]: > 5 µM
- AUC [2]: 0.952
- IC50 [2]: > 16 µM
- AUC [3]: 0.963
- IC50 [3]: > 10.2 µM
- AUC [4]: 0.901
- IC50 [4]: > 10 µM
- AUC [5]: 0.937
- IC50 [5]: > 8 µM
- AUC [6]: 0.888
- IC50 [6]: > 16 µM
- AUC [7]: 0.598
- IC50 [7]: 1.92 µM

Cell Line: SNU-398 (liver, adherent)
- AUC [1]: 0.984
- IC50 [1]: > 5 µM
- AUC [2]: 0.634
- IC50 [2]: 2.38 µM
- AUC [3]: 0.698
- IC50 [3]: 2.36 µM
- AUC [4]: 0.763
- IC50 [4]: 3.73 µM
- AUC [5]: 0.817
- IC50 [5]: 4.71 µM
- AUC [6]: 0.842
- IC50 [6]: 11.8 µM
- AUC [7]: 0.497
- IC50 [7]: 0.981 µM

Cell Line: SW156 (kidney, adherent)
- AUC [1]: 0.974
- IC50 [1]: > 5 µM
- AUC [2]: 0.927
- IC50 [2]: > 16 µM
- AUC [3]: 0.981
- IC50 [3]: > 10.2 µM
- AUC [4]: 0.911
- IC50 [4]: > 10 µM
- AUC [5]: 0.959
- IC50 [5]: > 8 µM
- AUC [6]: 0.807
- IC50 [6]: 9.31 µM
- AUC [7]: 0.773
- IC50 [7]: 6.91 µM

Cell Line: SW837 (large intestine, adherent)
- AUC [1]: 0.944
- IC50 [1]: > 5 µM
- AUC [2]: 0.855
- IC50 [2]: > 16 µM
- AUC [3]: 0.948
- IC50 [3]: > 10.2 µM
- AUC [4]: 0.913
- IC50 [4]: > 10 µM
- AUC [5]: 0.975
- IC50 [5]: > 8 µM
- AUC [6]: 0.882
- IC50 [6]: > 16 µM
- AUC [7]: 0.942
- IC50 [7]: > 16 µM

Cell Line: SW872 (soft tissue, adherent)
- AUC [1]: 0.953
- IC50 [1]: > 5 µM
- AUC [2]: 0.929
- IC50 [2]: > 16 µM
- AUC [3]: 0.982
- IC50 [3]: > 10.2 µM
- AUC [4]: 0.626
- IC50 [4]: 1.34 µM
- AUC [5]: 0.92
- IC50 [5]: > 8 µM
- AUC [6]: 0.824
- IC50 [6]: 8.35 µM
- AUC [7]: 0.429
- IC50 [7]: 0.651 µM

Cell Line: SW900 (lung squamous cell carcinoma, adherent)
- AUC [1]: 0.969
- IC50 [1]: > 5 µM
- AUC [2]: 0.927
- IC50 [2]: > 16 µM
- AUC [3]: 0.976
- IC50 [3]: > 10.2 µM
- AUC [4]: 0.777
- IC50 [4]: 4.71 µM
- AUC [5]: 0.978
- IC50 [5]: > 8 µM
- AUC [6]: 0.984
- IC50 [6]: > 16 µM
- AUC [7]: 0.605
- IC50 [7]: 2.03 µM

Cell Line: SW1088 (glioma, adherent)
- AUC [1]: 0.896
- IC50 [1]: > 5 µM
- AUC [2]: 0.957
- IC50 [2]: > 16 µM
- AUC [3]: 0.97
- IC50 [3]: > 10.2 µM
- AUC [4]: 0.839
- IC50 [4]: > 10 µM
- AUC [5]: 0.905
- IC50 [5]: > 8 µM
- AUC [6]: 0.955
- IC50 [6]: > 16 µM
- AUC [7]: 0.975
- IC50 [7]: > 16 µM

Cell Line: SW1463 (large intestine, adherent)
- AUC [1]: 0.973
- IC50 [1]: > 5 µM
- AUC [2]: 0.923
- IC50 [2]: > 16 µM
- AUC [3]: 0.975
- IC50 [3]: > 10.2 µM
- AUC [4]: 0.873
- IC50 [4]: > 10 µM
- AUC [5]: 0.969
- IC50 [5]: > 8 µM
- AUC [6]: 0.889
- IC50 [6]: > 16 µM
- AUC [7]: 0.9
- IC50 [7]: > 16 µM

Cell Line: TC-71 (Ewing sarcoma, adherent)
- AUC [1]: 0.985
- IC50 [1]: > 5 µM
- AUC [2]: 0.882
- IC50 [2]: 12.1 µM
- AUC [3]: 0.743
- IC50 [3]: 2.73 µM
- AUC [4]: 0.668
- IC50 [4]: 1.68 µM
- AUC [5]: 0.99
- IC50 [5]: > 8 µM
- AUC [6]: 0.992
- IC50 [6]: > 16 µM
- AUC [7]: 0.851
- IC50 [7]: 9.19 µM

Cell Line: TCCSUP (bladder, adherent)
- AUC [1]: 0.952
- IC50 [1]: > 5 µM
- AUC [2]: 0.957
- IC50 [2]: > 16 µM
- AUC [3]: 0.977
- IC50 [3]: > 10.2 µM
- AUC [4]: 0.772
- IC50 [4]: 4.41 µM
- AUC [5]: 0.985
- IC50 [5]: > 8 µM
- AUC [6]: 0.982
- IC50 [6]: > 16 µM
- AUC [7]: 0.796
- IC50 [7]: 8.75 µM

Cell Line: TE-10 (oesophagus, adherent)
- AUC [1]: 0.96
- IC50 [1]: > 5 µM
- AUC [2]: 0.888
- IC50 [2]: > 16 µM
- AUC [3]: 0.979
- IC50 [3]: > 10.2 µM
- AUC [4]: 0.528
- IC50 [4]: 0.746 µM
- AUC [5]: 0.961
- IC50 [5]: > 8 µM
- AUC [6]: 0.785
- IC50 [6]: 6.7 µM
- AUC [7]: 0.655
- IC50 [7]: 2.67 µM

Cell Line: U031 (kidney, adherent)
- AUC [1]: 0.944
- IC50 [1]: > 5 µM
- AUC [2]: 0.793
- IC50 [2]: 7.6 µM
- AUC [3]: 0.977
- IC50 [3]: > 10.2 µM
- AUC [4]: 0.872
- IC50 [4]: > 10 µM
- AUC [5]: 0.971
- IC50 [5]: > 8 µM
- AUC [6]: 0.715
- IC50 [6]: 4.15 µM
- AUC [7]: 0.803
- IC50 [7]: 8.27 µM

A lower IC50 marks a more sensitive line; a limit (>, <) means that the fit lies beyond the doses tested. AUC, from the same fit, is the share of area under the viability curve across the 256-fold dose range; it is 1 without any effect and falls as sensitivity rises. For some assays here: The top dose, if marked as inferred, is not printed in the source and was worked back from the curve model.
